Measured values reported in PubChem BioAssay AID1768 (National Center for Advancing Translational Sciences (NCATS), 2009).
About 620 (0.23%) of roughly 270,000 compounds were called active. Inconclusive means that the source gave no clear call. Such entries were picked first, then a sample of the others. Calls come from the whole dose curve; as a rule, active = well fitted inhibition curve with a large enough effect in the polarisation, with a control signal flat (not every such curve was filed as active); inconclusive = small, poorly fitted or top-dose-only effect, or effect the other way, or a change in a side signal; inactive = no such curve, though single readings can be large or run the other way; the % refers to the polarisation. Potencies of inconclusive entries are doubtful fits and often do not repeat. A note “side channel” means that the fit belongs to a control or component signal, not to the main read-out.

target: Menin (Homo sapiens) (UniProt O00255); assay: qHTS Assay for Inhibitors Targeting the Menin-MLL Interaction in MLL Related Leukemias: Competition With Texas Red Labeled MLL-derived Mutant Peptide; conditions: fluorescence polarization; FP activity change, negative = inhibition: at 61.6 µM (top of the series); for FP activity change, negative = inhibition: % of control where 0% means no effect
Potency is the fitted concentration of half-maximal effect; tags give direction and shape of the fitted curve or compound fluorescence and quenching.

Sequence of UniProt O00255 (O00255 whole entry, looked up): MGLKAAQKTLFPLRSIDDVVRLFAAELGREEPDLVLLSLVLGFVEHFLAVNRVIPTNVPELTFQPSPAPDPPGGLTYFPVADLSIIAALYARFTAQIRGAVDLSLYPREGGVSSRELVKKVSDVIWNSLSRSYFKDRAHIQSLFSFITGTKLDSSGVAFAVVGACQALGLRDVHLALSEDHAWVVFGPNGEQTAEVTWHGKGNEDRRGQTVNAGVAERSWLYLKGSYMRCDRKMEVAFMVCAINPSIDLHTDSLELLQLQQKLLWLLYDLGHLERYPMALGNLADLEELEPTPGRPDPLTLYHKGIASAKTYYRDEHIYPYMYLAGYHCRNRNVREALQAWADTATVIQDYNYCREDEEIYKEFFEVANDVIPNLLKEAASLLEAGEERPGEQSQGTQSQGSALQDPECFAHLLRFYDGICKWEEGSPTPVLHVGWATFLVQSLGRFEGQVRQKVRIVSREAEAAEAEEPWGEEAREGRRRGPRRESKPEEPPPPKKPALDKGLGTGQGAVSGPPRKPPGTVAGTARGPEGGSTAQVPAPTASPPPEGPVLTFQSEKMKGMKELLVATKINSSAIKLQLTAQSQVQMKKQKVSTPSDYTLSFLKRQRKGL

Potency, inconclusive:
CCCCCNC(=O)c1ccc2c(=O)[nH]c3c(C(=O)NCC4CCCO4)sc(=S)n3c2c1 (stereo unspecified) 31.6 µM [quencher, side channel, partial curve], COc1ccc(-c2nc3ccccc3c(=O)n2CC(C)C)cc1 39.8 µM [fluorescent, side channel, single point], O=C(CCS(=O)(=O)c1cccc2nonc12)N1CCN(c2ccc(F)cc2)CC1 10 µM [inhibitor, partial curve], Cc1ccccc1N=C1NC(=O)CC(c2ccccc2)S1 (stereo unspecified) 17.8 µM [fluorescent, side channel, partial curve], Clc1ccc(-n2ncc3c(NCc4ccco4)ncnc32)cc1 4.47 µM [quencher, side channel, full curve], CC(=O)OCc1c(C(F)(F)F)nn(C)c1Sc1ccccc1 5.01 µM [inhibitor, single point], Nc1oc2ccccc2c(=O)c1-c1ccc2c(c1)OCO2 2.51 µM [inhibitor, full curve], COc1ccc(N=C2SC(C(=O)Nc3ccc4c(c3)OCO4)CC(=O)N2C)cc1 (stereo unspecified) 11.2 µM [quencher, side channel, partial curve], CC(NS(=O)(=O)c1cccc(Cl)c1)C(=O)Nc1ccc(-c2nc3ccccc3s2)cc1 (stereo unspecified) 7.94 µM [quencher, side channel, partial curve], COC(=O)CSc1nnc(SCc2ccc(Cl)cc2)s1 3.98 µM [fluorescent, side channel, single point], CC(C)(C)c1ccc(OCC(O)CN2CCN(C(=O)c3ccccc3)CC2)cc1 (stereo unspecified) 10 µM [inhibitor, partial curve], COc1cccc(NC(=O)C2CC(=O)N(C)C(=Nc3cccc(F)c3)S2)c1 (stereo unspecified) 14.1 µM [quencher, side channel, partial curve], Cc1ccc(N=Nc2c(N)nn3c(N)c(C#N)c(C)nc23)cc1 8.91 µM [quencher, side channel, partial curve], CCCN1C(=O)/C(=C/c2ccc(N3CCOCC3)cc2)NC1=S 11.2 µM [quencher, side channel, partial curve], Cc1ccc(-n2nc3ccc(NC(=O)C(C)C)cc3n2)cc1 8.91 µM [quencher, side channel, partial curve], CSc1ccc(/C=C/c2ccc3cccc(O)c3n2)cc1 14.1 µM [quencher, side channel, partial curve], O=C(N/N=C1\CCCc2c1[nH]c1ccc(Cl)cc21)c1ccncc1 7.94 µM [quencher, side channel, full curve], CSc1ccc(/C=N/Nc2cccc(C(=O)O)c2)cc1 25.1 µM [quencher, side channel, partial curve], Cc1cc(Nc2ccccc2)n(-c2nc3ccccc3[nH]2)n1 17.8 µM [quencher, side channel, partial curve], C=C(c1ccc(C(=O)O)cc1)c1cc2c(cc1C)C(C)(C)CCC2(C)C 10 µM [quencher, side channel, partial curve], COc1cc(SC)ccc1C(=O)NCc1ccccc1 17.8 µM [fluorescent, side channel, partial curve], N#CC1=C(N)NC(SCC(=O)Nc2ccccc2)=C(C#N)C12CCCCC2 14.1 µM [quencher, side channel, partial curve], COc1cc(C2CC(=O)Oc3c(C(CCN4CCCC(C)C4)c4ccc(N(C)C)cc4)c(OC)cc(OC)c32)cc(OC)c1OC (stereo unspecified) 31.6 µM [fluorescent, side channel, single point], COC(=O)CSc1nc(NCc2ccccc2)nc(N(C)C)n1 11.2 µM [fluorescent, side channel, partial curve, poor fit], COc1cccc(C(=O)Oc2ccc3ccc(O)cc3c2)c1 31.6 µM [quencher, side channel, single point], O=C1N/C(=N/S(=O)(=O)c2ccccc2)S/C1=C/c1cccnc1 35.5 µM [quencher, side channel, single point], CN(C)c1ccc(C(CNS(=O)(=O)c2ccc(F)c(F)c2)c2c[nH]c3ccccc23)cc1 (stereo unspecified) 28.2 µM [quencher, side channel, single point], OC(COCCC12CC3CC(CC(C3)C1)C2)CN1CCCC1 (stereo unspecified) 22.4 µM [fluorescent, side channel, partial curve, poor fit], C=C(C)COc1ccc(-c2n[nH]c(C)c2Oc2ccccc2OC)c(O)c1 3.55 µM [quencher, side channel, full curve], O=[N+]([O-])c1cccc(-c2cc(-c3cc(Br)ccc3O)[nH]n2)c1 3.16 µM [quencher, single point], CC(C)Nc1nc(-c2ccccc2)nnc1-c1ccccc1 3.98 µM [fluorescent, side channel, full curve, poor fit], O=C(CSc1nc(NS(=O)(=O)c2ccccc2)cc(=O)[nH]1)Nc1ccc(F)cc1 39.8 µM [fluorescent, side channel, single point], O=c1c(Oc2ccccc2F)coc2cc(OCc3cnn(-c4ccccc4)c3)ccc12 28.2 µM [inhibitor, partial curve], CCOc1ccc(OCC)c(NC(=O)CN2CCN(c3cc(C)ccc3C)CC2)c1 39.8 µM [inhibitor, partial curve], Cc1ccc(N2C(=O)Nc3cc(Cl)c(Cl)cc3N2O)cc1Cl 25.1 µM [quencher, side channel, single point], Cc1nn(C(C)(C)C)c(OC(=O)c2ccc3c(c2)OCO3)c1S(=O)(=O)c1ccccc1 2.82 µM [inhibitor, full curve, poor fit], CCOC(=O)c1c(NC(=O)CSc2nnc(-c3ccccc3)n2CC)sc(C(C)=O)c1C 1.26 µM [fluorescent, side channel, full curve, poor fit], O=C(CN1CCN(c2ccccc2O)CC1)Nc1ccc([N+](=O)[O-])cc1Br 25.1 µM [quencher, side channel, partial curve], CCC(=O)Nc1cccc(NC(=S)NC(=O)c2cc3ccccc3o2)c1 39.8 µM [fluorescent, side channel, single point], O=C(NNC(=O)c1cc2ccccc2cc1O)Nc1ccccc1F 15.8 µM [quencher, side channel, partial curve], CCNc1ccc(Br)cc(C(=O)/C=C/c2ccc(Cl)cc2)c1=O 28.2 µM [quencher, side channel, partial curve], CCOC(=O)C1(Cc2cccc(OC)c2)CCN(Cc2cnc(SC)nc2)CC1 3.55 µM [fluorescent, side channel, full curve], CCOc1ccc(C2C(C#N)=C(N)SC(N)=C2C#N)c(OCC)c1 31.6 µM [quencher, side channel, single point], Cc1ccc(NC(=O)O/N=C2\CCCCC2c2ccc([N+](=O)[O-])cc2[N+](=O)[O-])cc1 (stereo unspecified) 14.1 µM [quencher, side channel, partial curve], CN1/C(=C\C(=O)Nc2cccc(Cl)c2)C(C)(C)c2ccccc21 10 µM [quencher, side channel, partial curve], COc1ccc(-c2cc(C(=O)Nc3cc(Br)ccc3O)no2)cc1 3.98 µM [inhibitor, full curve], COC(=O)N/N=C\c1ccccc1OC/C=C/c1ccccc1 3.55 µM [quencher, side channel, single point]

FP activity change, negative = inhibition, inactive:
CCOC(=O)/C=C(\C)Sc1cc(=O)oc2ccccc12 -12.2%, O=C(NC(NC(=S)N1CCOCC1)C(Cl)(Cl)Cl)c1ccc(Cl)cc1 (stereo unspecified) 11.6%, CCOc1ccc(Nc2nc(Cc3nnc(SCC(=O)NCC4CCCO4)n3C)cs2)cc1 (stereo unspecified) 0.422%, O=C(CCC1CCCN(C(=O)c2ccc3cc[nH]c3c2)C1)NCc1ccc(F)c(F)c1 (stereo unspecified) -8.1%, O=[N+]([O-])c1ccc(CN2CCOCCOCCN(Cc3ccc([N+](=O)[O-])cc3)CCOCC2)cc1 -5.37%, COc1ccccc1/C=C\C(=O)NCC(=O)N/N=C/c1cccc(OC)c1O 10.7%, CC(=O)c1cc2c(cc1NC(=O)C1CC=CCC1C(=O)O)OCO2 (stereo unspecified) 12.5%, Cc1cc2nc3c(=O)[nH]c(=O)nc-3n(CC(O)C(O)C(O)COP(=O)(O)O)c2cc1C (stereo unspecified) 2.77%, CC(=O)O[C@H]1C2=CO[C@H](C)[C@H]3[C@H]4C5=C([C@H](O)[C@H]6O[C@@H]6C5=O)[C@H](O[C@H]4C)[C@@]23C(=O)[C@H]2O[C@@H]21 -1.33% [at 11.7 µM]
